# PubChem BioAssay AID1345083 (National Center for Advancing Translational Sciences (NCATS), 2018)
# Among all 94,000 compounds or so, about 6,200 (6.6%) were called active. The inconclusive results got no clear call from the source; some entries with a clear call stand among them for comparison. Calls follow the shape of the dose curve; as a rule, active = well fitted inhibition curve with a large enough effect; inconclusive = small, poorly fitted or top-dose-only effect; inactive = flat fitted curve, though single readings scatter. Where the call is inconclusive, the potency comes from a doubtful curve fit.
# Test: Cytotoxic Profiling in HEK 293 Cell Line of Diverse Libraries Using Quantitative High-Throughput Screening; also: nearly all actives have a fitted effect of over 60% in size
# Details: HEK 293 viability, ATP luminescence (CellTiter-Glo), 48-72 h; activity change, negative = cytotoxicity: at 115 µM (top of the series) unless noted; series mostly up to 115 µM
# Summary of the method: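 qHTS cytotoxicity; HEK 293, 250 cells/well; compound pinned; 48 or 72 hr, 37 degree Celsius, 5% CO2, 95% humidity; CellTiter-Glo, 10 min RT; luminescence (ATP).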
# % is scaled to controls: 0 for no effect and ±100 for the full control effect; potency is read from the fitted curve at half-maximal effect; tags tell the direction and shape of the fitted curve.
Compound,Potency,"activity change, negative = cytotoxicity"
Cn1cnnc1CC1CCN(c2ncc(C(F)(F)F)cc2Cl)CC1,"inconclusive: 89.1 µM [inhibitor, single point]",
CCOc1ccccc1CN1CCC2(CCN(CCc3ccc(OC)cc3)CC2)Oc2ccccc21,"inconclusive: 50.1 µM [inhibitor, partial curve, poor fit]",
O=C1NC2(CCN(CC3CCCCC3)CC2)COc2ccccc21,active: 35.5 µM,
CC(=O)N1CCCC(C(=O)N2CCCC2c2nc3ccncc3[nH]2)C1 (stereo not given),,inactive: 0.461% [at 172 µM]
CCC1Oc2ccc(NC(=O)c3ccccc3OC(C)=O)cc2CN(Cc2ccccc2F)C1=O (stereo not given),active: 25.1 µM,
CN1c2cccnc2CN(Cc2ccc(OC(F)(F)F)cc2)CC[C@H]1CO,"inconclusive: 112 µM [inhibitor, partial curve, poor fit]",
CC(=O)N1CCC2(CC1)CN(C(=O)c1c[nH]c3ccccc13)Cc1ccccc1O2,"inconclusive: 15.8 µM [inhibitor, full curve, poor fit]",
Cc1ccccc1CC(=O)N1CCC(Oc2ncccc2C(=O)N2CCCCC2)C1 (stereo not given),,inactive: 3.72%
Cc1csc(NC(=O)[C@@H]2C[C@H](c3ccc(F)cc3)N(Cc3ccccc3Cl)C2)n1,"inconclusive: 15.8 µM [inhibitor, full curve, poor fit]",
CC1(CCCCc2ccccc2)COc2ccc(C(=O)NC3CC3)cc2N1 (stereo not given),"inconclusive: 56.2 µM [inhibitor, partial curve, poor fit]",
CCCCn1c(=O)c(C(=O)N2CCN(C(=O)c3cccc(Cl)c3)CC2)nc2cccnc21,,inactive: -17.7%
Cn1ccc(C(=O)N2C[C@H]3CN(C4CCOCC4)C[C@@]3(C(=O)O)C2)n1,,inactive: -0.816%
CN(C)c1nc2c(c(=O)[nH]1)CCN(Cc1ccc(Br)cc1)CC2,,inactive: 4%
COC1CN(C2CCN(C(=O)c3ccc(C)nc3)CC2)C12CCOCC2 (stereo not given),,inactive: 4.42%
CC(C)CCN1CCC(N2CCN(C(=O)c3ccc(Cl)s3)CC2)C1=O (stereo not given),"inconclusive: 89.1 µM [inhibitor, single point]",
O=C(c1cccs1)N1CCC2(CC1)CC(N(C(=O)c1ccccc1)C1CC1)CCO2 (stereo not given),"inconclusive: 56.2 µM [inhibitor, partial curve, poor fit]",
COc1ccc(CNC(=O)[C@@H]2CCC[C@@H](NC(=O)c3ccc(C#N)cc3)CN(C)C(=O)C2)cc1,,inactive: -1.58%
CC(C)N1CCN(C2CCOC3(CCN(C(=O)C4CCCCC4)CC3)C2)CC1 (stereo not given),,inactive: -15.9%
O=C(Cc1cccc(Cl)c1)N1CCC(C(=O)N2CCC(N3CCCC3=O)CC2)CC1,,inactive: -5.57%
O=C1NCCCN1C1CCN(Cc2ccc(F)cc2)CC1,"inconclusive: 126 µM [inhibitor, single point]",
